Measured values: PubChem BioAssay AID1345082 (National Center for Advancing Translational Sciences (NCATS), 2018)
The campaign covered roughly 94,000 compounds. About 4,000 (4.3%) were called active. The inconclusive results got no clear call from the source; some entries with a clear call stand among them for comparison. Calls follow the shape of the dose curve; as a rule, active = well fitted inhibition curve with a large enough effect; inconclusive = small, poorly fitted or top-dose-only effect; inactive = no such curve, though single readings can be large or run the other way. Where the call is inconclusive, the potency comes from a doubtful curve fit.

Test: Cytotoxic Profiling in NIH 3T3 Cell Line of Diverse Libraries Using Quantitative High-Throughput Screening; also: nearly all actives have a fitted effect of over 55% in size
Settings: NIH 3T3 viability, CellTiter-Glo ATP luminescence, 48-72 h; series mostly up to 96.7 µM
Outline: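 ATP-dependent luminescence (CellTiter-Glo) served as the viability signal for NIH 3T3 cells treated with compound for 48 or 72 hr at 37 °C.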
Potency is read from the fitted curve at half-maximal effect; tags tell the direction and shape of the fitted curve.

| SMILES | Potency |
| --- | --- |
| N#Cc1cccc(C(=O)N2CCC3(CCC3N3CCOCC3)CC2)c1 (stereo not drawn) | inactive |
| O=C(Nc1ccc(Oc2ccccc2)cc1)N[C@H]1CO[C@H]2[C@@H]1OC[C@H]2OC(=O)Nc1cccc2ccccc12 | inconclusive: 35.5 µM [inhibitor, full curve] |
| O=C(c1ccoc1)N1CCCC(n2cc(-c3nc(C4CC4)no3)nn2)C1 (stereo not drawn) | inconclusive: 56.2 µM [inhibitor, partial curve, poor fit] |
| Cc1ccc(Cn2c(=O)c(-c3noc(C)n3)c3n(c2=O)CCCCC3)cc1 | inactive |
| CCOC(=O)[C@H]1[C@@H](O)C(=O)N(C(C)C)C12CCN(C(=O)c1csc(-c3cccs3)n1)CC2 | inconclusive: 79.4 µM [inhibitor, partial curve, poor fit] |
| COc1ccc(CN2CCC3(CC2)Cc2ccccc2CNC3=O)cc1 | inactive |
| COc1cc(Cl)c(C)cc1NC(=O)Cn1ccn2nc(-c3ccc(F)cc3)c(CO)c2c1=O | inconclusive: 39.8 µM [inhibitor, partial curve] |
| O=C(Cc1ccc(F)cc1)N1CCCC(C(=O)N2CCC(c3ccccc3)CC2)C1 (stereo not drawn) | inconclusive: 50.1 µM [inhibitor, partial curve, poor fit] |
| O=C(c1ccccc1Cl)N1CCC2(CC1)Cc1ccccc1NC2=O | inconclusive: 50.1 µM [inhibitor, partial curve, poor fit] |
| CCn1nccc1C(=O)N1CCC(c2noc(COc3ccc(F)cc3)n2)C1 (stereo not drawn) | inconclusive: 39.8 µM [inhibitor, partial curve, poor fit] |
| C[C@]1(CO)[C@H]2Cc3sc(NC(=O)c4cccc(F)c4)nc3[C@@H](CC(=O)N3CCOCC3)[C@]2(C)CC[C@H]1O | inactive |
| CN1C(=O)C(c2ccccc2)CC12CCN(C(=O)c1ccc(F)cc1F)CC2 (stereo not drawn) | inactive |
| COc1ccccc1-c1cccc(C(=O)N2CCN(C(=O)c3ccc(C)cc3)CC2)c1 | inconclusive: 44.7 µM [inhibitor, partial curve, poor fit] |
| Cn1cnc(S(=O)(=O)NCCc2noc(-c3ccncc3)n2)c1 | inactive |
| COc1ccc(N2C(=O)CSC23CCN(C(=O)C2CCCC2)CC3)cc1 | inconclusive: 70.8 µM [inhibitor, single point] |
| Cc1ccc(CN2C(=O)OC(c3cccc(NC(=O)c4ccc(F)cc4)c3)C2C(=O)NC2CC2)cc1 (stereo not drawn) | inconclusive: 50.1 µM [inhibitor, partial curve, poor fit] |
| COc1ccc(-c2cc(-c3ccncc3)c3cncn3c2)cn1 | inconclusive: 22.4 µM [inhibitor, full curve] |
| O=C1OCC2(CCN([S+](=O)([O-])c3ccccc3F)C2)N1CCN1CCOCC1 (stereo not drawn) | inconclusive: 112 µM [inhibitor, single point] |
| O=C(Nc1ccc(Oc2ccccc2)cc1)N[C@H]1CO[C@H]2[C@@H]1OC[C@@H]2n1nnnc1Oc1ccccc1 | inconclusive: 50.1 µM [inhibitor, partial curve, poor fit] |
| O=C1Cc2c(-c3ccc(Oc4ccccc4)cc3)n[nH]c2CN1Cc1ccccc1F | inconclusive: 56.2 µM [inhibitor, partial curve, poor fit] |
| Cc1nc2c(c(-c3ccc(O)cc3)n1)CN(Cc1cccc3ccccc13)CCC2 | active: 31.6 µM |

| SMILES | Potency |
| --- | --- |
| NC(=O)[C@H]1C[C@@H](O)[C@H](O)[C@H]2[C@@H]1SC(=Nc1ccc(Cl)cc1)N2CC1CCCCC1 | inconclusive: 70.8 µM [inhibitor, single point] |
| O=C1CC2(CCN(Cc3ccsc3)CC2)Oc2ccccc2N1c1ccccc1 | inconclusive: 39.8 µM [inhibitor, partial curve] |
| O=C1CCN(C(=O)C2COc3ccccc3O2)CCCOCCN1 (stereo not drawn) | inconclusive: 39.8 µM [inhibitor, partial curve, poor fit] |
| Cn1c(CO[C@H]2CN(Cc3cnc4ccccc4c3)C[C@H]2F)nc2ccccc21 | inconclusive: 56.2 µM [inhibitor, partial curve, poor fit] |
| Cc1ccc([S+](=O)([O-])N2CC(CN3C(=O)c4c(c(C)nn4-c4ccccc4)C3C)C2)cc1 (stereo not drawn) | inconclusive: 35.5 µM [inhibitor, partial curve, poor fit] |
| COc1ccc(CN2CC(Oc3ccc(F)cc3C)C2)cc1 | active: 39.8 µM |
| COc1ccccc1-c1ccc(CN2CC3CCC(C2)N3c2ccc(C(F)(F)F)cc2)cc1 | inactive |
| CCN1c2cc(C(=O)NCCOc3ccccc3OC)ccc2C(=O)N2CCCCCC21 (stereo not drawn) | inconclusive: 50.1 µM [inhibitor, partial curve, poor fit] |
| O=C(NCC(F)(F)F)C1CCCN1C(=O)c1cccc(-c2cccnc2)c1 (stereo not drawn) | inactive |
| CC1(COCC2CC2)COc2ccc(C(=O)Nc3cccc([S+](C)(=O)[O-])c3)cc2N1 (stereo not drawn) | inconclusive: 79.4 µM [inhibitor, partial curve] |
| Cc1nn(-c2ccccc2)c2c1C(C)N(CC1CN(C(=O)c3ccc(Cl)cc3)C1)C2=O (stereo not drawn) | active: 35.5 µM |
| O=C(NCC1CN([S+](=O)([O-])c2cccnc2)CC12CN(c1ccccc1)C2)Nc1ccccc1 (stereo not drawn) | inconclusive: 44.7 µM [inhibitor, partial curve, poor fit] |
| COc1ccc(CCC(=O)N2CCC3(CC2)CC(OC)CCO3)cc1 (stereo not drawn) | inactive |
| Fc1ccc2c(c1)nc1n2[C@@H](CNCc2c[nH]c3ccccc23)COC1 | inconclusive: 50.1 µM [inhibitor, partial curve, poor fit] |
| CCCCCN(CCC(=O)NCCC(C)C)C(=O)c1cc(C)oc1C | inconclusive: 50.1 µM [inhibitor, partial curve, poor fit] |
| Cc1ccc(C(=O)N2CCCC2C(=O)Nc2cccc(-n3cccn3)c2)cn1 (stereo not drawn) | inactive |
| Cc1c(C(=O)N2C[C@@H](C)[C@](O)(C3CCC3)C2)n(C)c2c(C)cccc12 | inconclusive: 50.1 µM [inhibitor, partial curve, poor fit] |
| COC(=O)N1CCc2nc(C3CC3)nc(-c3ccc(Cl)cc3)c2C1 | inconclusive: 89.1 µM [inhibitor, partial curve] |
| Fc1ccccc1CNc1cc(Cl)nc2ccnn12 | inconclusive: 10 µM [inhibitor, full curve, poor fit] |
| O=c1n(CCCN2CCN([S+](=O)([O-])c3ccccc3)CC2)nc2n1CCCC2 | inactive |
| Cn1cc(-c2cccc(C(F)(F)F)c2)c2nc(CNc3ccccc3)cn2c1=O | active: 25.1 µM |

| SMILES | Potency |
| --- | --- |
| CCCNC(=O)N[C@@H]1CCC[C@@H](C(=O)NCCOC)CC(=O)N(C)C1 | inactive |
| COc1cccc(CN2CCCC3(C2)NC(=O)c2ccccc2O3)c1 (stereo not drawn) | inconclusive: 89.1 µM [inhibitor, partial curve, poor fit] |
| O=C1CCC2(CCN1CC1CC1)CCN(S(=O)(=O)c1ccccc1F)CC2 | inactive |
| CC(C)c1noc(-c2cn(C3CCCN(C(=O)c4ccc(N(C)C)cc4)C3)nn2)n1 (stereo not drawn) | inactive |
| O=C(NCC1CN(C(=O)NCc2ccc(F)cc2)CC12CCCCC2)C1CC1 (stereo not drawn) | inactive |
| O=C([C@@H]1C[C@H](Oc2ccccc2)CN1C(=O)c1cccnc1)N1CCCC1 | inactive |
| CN(C)CC(NC1CCC2(CCNCC2)CC1)c1ccccc1 (stereo not drawn) | inconclusive: 79.4 µM [inhibitor, partial curve, poor fit] |
| Cc1cccc(OC2CN(C(=O)c3ccc(CCC(C)(C)O)cc3)C2)c1 | inconclusive: 79.4 µM [inhibitor, partial curve, poor fit] |
| O=C(NCc1nnc2c(-c3nc(C4CC4)no3)cccn12)c1cccc2[nH]ccc12 | inconclusive: 44.7 µM [inhibitor, partial curve, poor fit] |
| Cc1cn2nc(C(=O)NCc3ccc(Cl)cc3)cc2c(N(C)Cc2ccccc2)n1 | inconclusive: 31.6 µM [inhibitor, full curve, poor fit] |
| O=C(NCC1CC1)c1ccc2nnc(C3CCCC3)n2c1 | inactive |
| COc1ccc(-c2nc(C(C)C)nc3c2CCN(C(=O)c2ccccc2C)CC3)cc1 | inconclusive: 50.1 µM [inhibitor, partial curve, poor fit] |
| COc1cccc(CC(=O)NC2CCN(c3cc(-c4ccccc4)[nH]n3)CC2)c1 | inconclusive: 44.7 µM [inhibitor, partial curve, poor fit] |
| CC1(C(=O)NCCOc2ccccc2)CCCc2cnc(Nc3cccnc3)nc21 (stereo not drawn) | inconclusive: 89.1 µM [inhibitor, partial curve] |
| O=C(OCc1ccccc1)N1CCOCC12CCN(Cc1ccncc1)CC2 | active: 35.5 µM |
| O=C1NN=C(c2cccnc2)C12CCN([S+](=O)([O-])c1cccc(C(F)(F)F)c1)CC2 | inconclusive: 31.6 µM [inhibitor, partial curve, poor fit] |
| O=C1CCCCC(CNC(=O)c2ccccc2)N1 (stereo not drawn) | inconclusive: 79.4 µM [inhibitor, partial curve, poor fit] |
| CCN(Cc1ccccc1)C(=O)c1cc(-c2ccncc2)cn1Cc1ccc(C)cc1 | inconclusive: 35.5 µM [inhibitor, partial curve, poor fit] |
| Cc1nnc(-c2cc(-c3cccnc3)ccn2)n1C1CCCCC1 | active: 89.1 µM |
| COc1ccc(S(=O)(=O)N2CCC(n3cnnc3-c3ccccc3)CC2)cc1 | inactive |
| O=C([C@@H]1C[C@H](F)CN1C(=O)Nc1ccccc1Cl)N1CCCCC1 | inconclusive: 56.2 µM [inhibitor, single point] |
